Experimental data as given in the supplement of paper PMC4967469.
pIC50: −log10 of the molar value. Lines with a small IC50 respond at low doses; a fit beyond the top or the lowest dose is shown as a bound at that dose. AUC, from the same fit, is the share of area under the viability curve across the 256-fold dose range; it is 1 without any effect and falls as sensitivity rises. For some of these results: Any top dose called inferred is not printed in the source and was worked back from the curve model.

How the values were obtained:
Test in all cases: Viability of human cancer cell lines after 72 h of drug (GDSC screen)
[1] = compound: O=C(CCCCCCC(=O)Nc1ccccc1)NO [Vorinostat]; details: top dose 10 µM
Protocol: (§1)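 Human cancer cell lines in 384-well plates, medium with 10% serum, drug for 72 h over a 256-fold dose range (nine 2-fold or five 4-fold steps up to the top dose). Adherent lines were fixed and stained with the nucleic acid dye Syto60, suspension lines read with resazurin; signal relative to control wells, capped at 0 and 100%. One two-parameter sigmoid per drug and line, fitted in a mixed model over all curves with the slope shared within a line.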

[2] = compound: CNC(=O)c1ccccc1Sc1ccc2c(/C=C/c3ccccn3)n[nH]c2c1 [Axitinib]; details: top dose 2 µM
Protocol: as §1

[3] = compound: CN(Cc1cnc2nc(N)nc(N)c2n1)c1ccc(C(=O)N[C@@H](CCC(=O)O)C(=O)O)cc1 [Methotrexate]; details: top dose 0.2 µM
Protocol: as §1

[4] = compound: CCc1c2c(nc3ccc(O)cc13)-c1cc3c(c(=O)n1C2)COC(=O)[C@]3(O)CC [SN-38]; details: top dose 0.05 µM; top dose inferred
Protocol: as §1

[5] = compound: CC(C)(C)c1nc(-c2cccc(NS(=O)(=O)c3c(F)cccc3F)c2F)c(-c2ccnc(N)n2)s1 [Dabrafenib]; details: top dose 10 µM
Protocol: as §1

Cell Line: HCC202 (breast, adherent)
- AUC [1]: 0.751
- pIC50 [1]: 5.34
- AUC [2]: 0.892
- pIC50 [2]: < 5.70
- AUC [3]: 0.981
- pIC50 [3]: < 6.70
- AUC [4]: 0.913
- pIC50 [4]: < 7.30
- AUC [5]: 0.973
- pIC50 [5]: < 5.00

Cell Line: OV-7 (ovary, adherent)
- AUC [1]: 0.72
- pIC50 [1]: 5.43
- AUC [2]: 0.945
- pIC50 [2]: < 5.70
- AUC [3]: 0.946
- pIC50 [3]: < 6.70
- AUC [4]: 0.74
- pIC50 [4]: 7.65
- AUC [5]: 0.854
- pIC50 [5]: < 5.00

Cell Line: NCI-H3122 (lung adenocarcinoma, adherent)
- AUC [1]: 0.668
- pIC50 [1]: 5.73
- AUC [2]: 0.937
- pIC50 [2]: < 5.70
- AUC [3]: 0.853
- pIC50 [3]: 6.79
- AUC [4]: 0.738
- pIC50 [4]: 7.82
- AUC [5]: 0.961
- pIC50 [5]: < 5.00

Cell Line: STS-0421 (soft tissue, adherent)
- AUC [1]: 0.748
- pIC50 [1]: 5.43
- AUC [2]: 0.792
- pIC50 [2]: 5.97
- AUC [3]: 0.942
- pIC50 [3]: < 6.70
- AUC [4]: 0.723
- pIC50 [4]: 7.82
- AUC [5]: 0.951
- pIC50 [5]: < 5.00

Cell Line: NCI-H2347 (lung adenocarcinoma, adherent)
- AUC [1]: 0.897
- pIC50 [1]: < 5.00
- AUC [2]: 0.983
- pIC50 [2]: < 5.70
- AUC [3]: 0.978
- pIC50 [3]: < 6.70
- AUC [4]: 0.796
- pIC50 [4]: 7.53
- AUC [5]: 0.895
- pIC50 [5]: < 5.00

Cell Line: G-MEL (melanoma, adherent)
- AUC [1]: 0.417
- pIC50 [1]: 6.43
- AUC [2]: 0.939
- pIC50 [2]: < 5.70
- AUC [3]: 0.976
- pIC50 [3]: < 6.70
- AUC [4]: 0.476
- pIC50 [4]: 8.57
- AUC [5]: 0.037
- pIC50 [5]: > 7.41

Cell Line: Hs683 (glioma, adherent)
- AUC [1]: 0.901
- pIC50 [1]: < 5.00
- AUC [2]: 0.948
- pIC50 [2]: < 5.70
- AUC [3]: 0.986
- pIC50 [3]: < 6.70
- AUC [4]: 0.706
- pIC50 [4]: 7.92
- AUC [5]: 0.986
- pIC50 [5]: < 5.00

Cell Line: SNU-423 (liver, adherent)
- AUC [1]: 0.681
- pIC50 [1]: 5.66
- AUC [2]: 0.904
- pIC50 [2]: < 5.70
- AUC [3]: 0.983
- pIC50 [3]: < 6.70
- AUC [4]: 0.789
- pIC50 [4]: 7.58
- AUC [5]: 0.964
- pIC50 [5]: < 5.00

Cell Line: HCC-827 (lung adenocarcinoma, adherent)
- AUC [1]: 0.8
- pIC50 [1]: 5.24
- AUC [2]: 0.974
- pIC50 [2]: < 5.70
- AUC [3]: 0.928
- pIC50 [3]: < 6.70
- AUC [4]: 0.901
- pIC50 [4]: < 7.30
- AUC [5]: 0.972
- pIC50 [5]: < 5.00

Cell Line: KYSE-520 (oesophagus, adherent)
- AUC [1]: 0.815
- pIC50 [1]: 5.09
- AUC [2]: 0.969
- pIC50 [2]: < 5.70
- AUC [3]: 0.969
- pIC50 [3]: < 6.70
- AUC [4]: 0.873
- pIC50 [4]: < 7.30
- AUC [5]: 0.979
- pIC50 [5]: < 5.00

Cell Line: 647-V (bladder, adherent)
- AUC [1]: 0.812
- pIC50 [1]: 5.27
- AUC [2]: 0.985
- pIC50 [2]: < 5.70
- AUC [3]: 0.977
- pIC50 [3]: < 6.70
- AUC [4]: 0.31
- pIC50 [4]: 9.04
- AUC [5]: 0.982
- pIC50 [5]: < 5.00

Cell Line: EW-1 (Ewing sarcoma, semi-adherent)
- AUC [1]: 0.6
- pIC50 [1]: 5.94
- AUC [2]: 0.909
- pIC50 [2]: < 5.70
- AUC [3]: 0.843
- pIC50 [3]: 6.90
- AUC [4]: 0.289
- pIC50 [4]: 9.08
- AUC [5]: 0.986
- pIC50 [5]: < 5.00

Cell Line: SU8686 (pancreas, adherent)
- AUC [1]: 0.776
- pIC50 [1]: 5.35
- AUC [2]: 0.978
- pIC50 [2]: < 5.70
- AUC [3]: 0.817
- pIC50 [3]: 6.89
- AUC [4]: 0.799
- pIC50 [4]: 7.56
- AUC [5]: 0.98
- pIC50 [5]: < 5.00

Cell Line: MHH-ES-1 (Ewing sarcoma, adherent)
- AUC [1]: 0.602
- pIC50 [1]: 5.92
- AUC [2]: 0.756
- pIC50 [2]: 6.17
- AUC [3]: 0.738
- pIC50 [3]: 7.23
- AUC [4]: 0.279
- pIC50 [4]: 9.13
- AUC [5]: 0.977
- pIC50 [5]: < 5.00

Cell Line: CAL-78 (chondrosarcoma, adherent)
- AUC [1]: 0.825
- pIC50 [1]: 5.14
- AUC [2]: 0.897
- pIC50 [2]: < 5.70
- AUC [3]: 0.986
- pIC50 [3]: < 6.70
- AUC [5]: 0.966
- pIC50 [5]: < 5.00

Cell Line: RPMI-8866 (chronic myeloid leukaemia, suspension)
- AUC [1]: 0.374
- pIC50 [1]: 6.54
- AUC [2]: 0.847
- pIC50 [2]: 5.88
- AUC [3]: 0.429
- pIC50 [3]: 8.09
- AUC [5]: 0.935
- pIC50 [5]: < 5.00

Cell Line: CHP-212 (neuroblastoma, adherent)
- AUC [1]: 0.289
- pIC50 [1]: 6.77
- AUC [2]: 0.768
- pIC50 [2]: 6.16
- AUC [3]: 0.987
- pIC50 [3]: < 6.70
- AUC [5]: 0.967
- pIC50 [5]: < 5.00

Cell Line: Hs939-T (melanoma, adherent)
- AUC [1]: 0.721
- pIC50 [1]: 5.55
- AUC [2]: 0.94
- pIC50 [2]: < 5.70
- AUC [3]: 0.986
- pIC50 [3]: < 6.70
- AUC [4]: 0.862
- pIC50 [4]: 7.31

Cell Line: IGR-1 (melanoma, adherent)
- AUC [1]: 0.84
- pIC50 [1]: 5.24
- AUC [2]: 0.967
- pIC50 [2]: < 5.70
- AUC [3]: 0.97
- pIC50 [3]: < 6.70
- AUC [4]: 0.769
- pIC50 [4]: 7.78

Cell Line: TMK-1 (stomach, adherent)
- AUC [1]: 0.572
- pIC50 [1]: 6.00
- AUC [2]: 0.97
- pIC50 [2]: < 5.70
- AUC [3]: 0.756
- pIC50 [3]: 7.14
- AUC [5]: 0.984
- pIC50 [5]: < 5.00

Cell Line: SCH (stomach, adherent)
- AUC [1]: 0.746
- pIC50 [1]: 5.47
- AUC [2]: 0.988
- pIC50 [2]: < 5.70
- AUC [3]: 0.938
- pIC50 [3]: < 6.70
- AUC [4]: 0.935
- pIC50 [4]: < 7.30

Cell Line: MZ2-MEL (melanoma, adherent)
- AUC [1]: 0.678
- pIC50 [1]: 5.67
- AUC [2]: 0.855
- pIC50 [2]: < 5.70
- AUC [3]: 0.981
- pIC50 [3]: < 6.70
- AUC [4]: 0.841
- pIC50 [4]: 7.36

Cell Line: SK-N-DZ (neuroblastoma, adherent)
- AUC [1]: 0.574
- pIC50 [1]: 6.00
- AUC [2]: 0.914
- pIC50 [2]: < 5.70
- AUC [3]: 0.923
- pIC50 [3]: < 6.70
- AUC [4]: 0.541
- pIC50 [4]: 8.39

Cell Line: NOS-1 (osteosarcoma, adherent)
- AUC [1]: 0.652
- pIC50 [1]: 5.74
- AUC [2]: 0.905
- pIC50 [2]: < 5.70
- AUC [3]: 0.931
- pIC50 [3]: < 6.70
- AUC [4]: 0.882
- pIC50 [4]: < 7.30

Cell Line: BFTC-905 (bladder, adherent)
- AUC [1]: 0.765
- pIC50 [1]: 5.50
- AUC [2]: 0.941
- pIC50 [2]: < 5.70
- AUC [3]: 0.985
- pIC50 [3]: < 6.70
- AUC [5]: 0.81
- pIC50 [5]: 5.36

Cell Line: NCI-H1792 (lung adenocarcinoma, adherent)
- AUC [1]: 0.774
- pIC50 [1]: 5.45
- AUC [2]: 0.956
- pIC50 [2]: < 5.70
- AUC [3]: 0.814
- pIC50 [3]: 7.02
- AUC [4]: 0.86
- pIC50 [4]: 7.45

Cell Line: JHU-011 (head and neck, adherent)
- AUC [1]: 0.501
- pIC50 [1]: 6.20
- AUC [2]: 0.879
- pIC50 [2]: 5.70
- AUC [3]: 0.511
- pIC50 [3]: 7.87
- AUC [4]: 0.527
- pIC50 [4]: 8.43
